Patent US20240067711A1 (MEDYTOX, published 2024)

T1: human VEGF (hVEGF), isoform not stated (human, UniProt P15692-4 27-191, limits assumed)
T1 sequence (looked up): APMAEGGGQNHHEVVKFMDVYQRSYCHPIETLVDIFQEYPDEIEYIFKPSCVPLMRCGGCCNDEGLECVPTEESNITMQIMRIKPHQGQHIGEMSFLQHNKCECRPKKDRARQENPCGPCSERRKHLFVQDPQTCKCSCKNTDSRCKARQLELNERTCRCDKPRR

T2: recombinant human VEGF165 (human, UniProt P15692-4 27-191)
T2 construct: Bought protein from two vendors, treated as one molecule; Species is stated for the Octet material; the R&D material is printed only as VEGF165
T2 sequence (looked up): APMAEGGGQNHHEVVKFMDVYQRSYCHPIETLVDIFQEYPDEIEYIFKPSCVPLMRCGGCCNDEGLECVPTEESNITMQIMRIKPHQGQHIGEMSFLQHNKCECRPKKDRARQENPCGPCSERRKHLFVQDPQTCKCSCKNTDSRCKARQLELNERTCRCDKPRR


How the values were obtained:
[1] = biological target: T1, human VEGF (hVEGF), isoform not stated; assay: ELISA on coated hVEGF (500 ng/ml), detection with anti-hIgG-Fc HRP, A450
Procedure: (§1) ELISA was performed to confirm the binding ability to VEGF. First, 100 μl of hVEGF was added to an immunoplate at a concentration of 500 ng/ml and caused to react at room temperature for 1 hour. 2% skim milk was dissolved in PBST, and then, 200 μl thereof was added onto the VEGF-coated wells and the reaction was caused to occur at room temperature for 2 hours. After the reaction, the well was washed three times using 300 μl of PBST, and then, Hz2, AAA0289, AAA0308, AAA0589, AAA0592, and AAA0600, which were purified above, were diluted starting from at a concentration of 100 ng/ml by two-fold to make a total of 11 samples. The samples were placed on the VEGF-coated well and the reaction was caused to occur at room temperature for 20 minutes. After the reaction, the well was washed three times using 300 μl of PBST, and then, anti-hIgG-Fc HRP (1:3000, Thermo) was added thereto at 100 μl/well and then reacted for 30 minutes. Then, the well was washed three times as described above, and the TMB (BioFx company) solution was added thereto at 100 μl/well to develop color at room temperature for 5 minutes. After the color development, 2N sulfuric acid was added at 50 μl/well to stop the color development, and the absorbance was measured at 450 nm, and results are shown in FIGS. 4A and 4B.

[2] = biological target: T1, human VEGF (hVEGF), isoform not stated; assay: as above; remark: listed apart in the source
Procedure: as §1

[3] = biological target: T2, recombinant human VEGF165; assay: Octet red96E BLI, human VEGF165 amine-coupled on AR2G sensor, hexamer as analyte, 30° C.
Procedure: Affinity for VEGF was determined as follows. Octet red96E was used, and human VEGF immobilized on the biosensor AR2G was interacted with AAA0308, AAA0589, AAA0592, and AAA0600 used as analytes, and binding and dissociation values thereof were compared and measured. As human VEGF, recombinant human VEGF165 (Sinobiological company) was used, and VEGF was immobilized on the AR2G sensor chip by an amine coupling method. At this time, the amount of VEGF used was 10 μg/ml, and the degree of coating was confirmed using a wavelength of 5 nm.
During measurement, the rotation speed was set to 100, and the temperature was measured at 30° C.
The concentration of the sample was adjusted using a kinetic buffer (Molecular Device Co.). The antibody solution of each concentration was used as a binding phase for 5 minutes, and then switched to a kinetic buffer to form a dissociation phase for 30 minutes.

Binder	EC50 (read off the curve) [1]	EC50 (read off the curve) [2]	Kd [3]	koff [3]
Aflibercept AAA0289 (Fc fusion, also called AAA0289 monomer) SDTGRPFVEMYSEIPEIIHMTEGRELVIPCRVTSPNITVTLKKFPLDTLIPDGKRIIWDSRKGFIISNATYKEIGLLTCEATVNGHLYKTNYLTHRQTNTIIDVVLSPSHGIELSVGEKLVLNCTARTELNVGIDFNWEYPSSKHQHKKLVNRDLKTQSGSEMKKFLSTLTIDGVTRSDQGLYTCAASSGLMTKKNSTFVRVHEK[here human IgG1 Fc without letters]	~0.03 nM	~0.03 nM		
Aflibercept hexamer AAA0308 (Fc fusion) SDTGRPFVEMYSEIPEIIHMTEGRELVIPCRVTSPNITVTLKKFPLDTLIPDGKRIIWDSRKGFIISNATYKEIGLLTCEATVNGHLYKTNYLTHRQTNTIIDVVLSPSHGIELSVGEKLVLNCTARTELNVGIDFNWEYPSSKHQHKKLVNRDLKTQSGSEMKKFLSTLTIDGVTRSDQGLYTCAASSGLMTKKNSTFVRVHEK[here human IgG1 Fc with changes and a few adjoining residues without letters]		~0.02 nM	< 0.001 nM	< 1e-07 s⁻¹

Where two headings read alike, the source gives them in different places.
